Experimental data reported in the supplement of paper PMC4967469.
The IC50 comes from the fitted curve, where viability falls to half of the control; fits outside the tested doses are given as limits. AUC, from the same fit, is the share of area under the viability curve across the 256-fold dose range; the more sensitive the line, the further below 1. For part of these data: Any top dose called inferred is not printed in the source and was worked back from the curve model.

Assays:
Test in all cases: Viability of human cancer cell lines after 72 h of drug (GDSC screen)
[1] = compound: Cc1cc(C(C)Nc2ccccc2)c2nc(N3CCOCC3)cc(=O)n2c1 [TGX221]; details: top dose 10 µM
Procedure: (§1)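 Human cancer cell lines in 384-well plates, medium with 10% serum, drug for 72 h over a 256-fold dose range (nine 2-fold or five 4-fold steps up to the top dose). Adherent lines were fixed and stained with the nucleic acid dye Syto60, suspension lines read with resazurin; signal relative to control wells, capped at 0 and 100%. One two-parameter sigmoid per drug and line, fitted in a mixed model over all curves with the slope shared within a line.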

[2] = compound: CCN(CC)CCCCNc1ncc2cc(-c3cc(OC)cc(OC)c3)c(NC(=O)NC(C)(C)C)nc2n1 [PD-173074]; details: top dose 2 µM; top dose inferred
Procedure: as §1

[3] = compound: CS(=O)(=O)CCNCc1ccc(-c2ccc3ncnc(Nc4ccc(OCc5cccc(F)c5)c(Cl)c4)c3c2)o1 [Lapatinib]; details: top dose 2 µM
Procedure: as §1

[4] = compound: CN(C)CCOc1ccc(-c2nc(-c3ccncc3)c(-c3ccc4c(c3)CC/C4=N\O)[nH]2)cc1 [SB590885]; details: top dose 5 µM; top dose inferred
Procedure: as §1

Cell Line | AUC [1] | IC50 [1] [µM] | AUC [2] | IC50 [2] [µM] | AUC [3] | IC50 [3] [µM] | AUC [4] | IC50 [4] [µM]
JVM-2 (lymphoid neoplasm, suspension) | 0.97 | > 10 | 0.933 | > 2 | 0.978 | > 2 | 0.96 | > 5
JVM-3 (lymphoid neoplasm, suspension) | 0.987 | > 10 | 0.943 | > 2 | 0.987 | > 2 | 0.952 | > 5
JiyoyeP-2003 (Burkitt lymphoma, suspension) | 0.988 | > 10 | 0.981 | > 2 | 0.99 | > 2 | 0.977 | > 5
KARPAS-45 (lymphoblastic leukaemia, suspension) | 0.935 | > 10 | 0.93 | > 2 | 0.991 | > 2 | 0.983 | > 5
KARPAS-231 (B-cell leukaemia, suspension) | 0.915 | 8.72 | 0.979 | > 2 | 0.99 | > 2 | 0.994 | > 5
KARPAS-299 (anaplastic large cell lymphoma, suspension) | 0.992 | > 10 | 0.972 | > 2 | 0.991 | > 2 | 0.98 | > 5
KARPAS-422 (B-cell lymphoma, suspension) | 0.8 | 4.75 | 0.972 | > 2 | 0.988 | > 2 | 0.978 | > 5
KCL-22 (chronic myeloid leukaemia, suspension) | 0.991 | > 10 | 0.991 | > 2 | 0.985 | > 2 | 0.991 | > 5
KE-37 (lymphoblastic leukaemia, suspension) | 0.994 | > 10 | 0.914 | 1.69 | 0.994 | > 2 | 0.975 | > 5
KELLY (neuroblastoma, adherent) | 0.989 | > 10 | 0.964 | > 2 | 0.986 | > 2 | 0.966 | > 5
KG-1 (acute myeloid leukaemia, suspension) | 0.978 | > 10 | 0.531 | 0.15 | 0.99 | > 2 | 0.989 | > 5
KGN (ovary, adherent) | 0.853 | > 10 | 0.968 | > 2 | 0.969 | > 2 | 0.981 | > 5
KINGS-1 (glioma, adherent) | 0.858 | > 10 | 0.975 | > 2 | 0.973 | > 2 | 0.979 | > 5
KM12 (large intestine, adherent) | 0.95 | > 10 | 0.977 | > 2 | 0.979 | > 2 | 0.975 | > 5
KM-H2 (Hodgkin lymphoma, suspension) | 0.984 | > 10 | 0.981 | > 2 | 0.993 | > 2 | 0.989 | > 5
